Values after ≈ are worked out from the molar mass of the structure shown. Read-outs that look alike come from different tables or passages of the source.
What was measured:
[1] = system: Pseudomonas aeruginosa; conditions: patients screened from 69 CF centers; cited from earlier work
[2] = system: P. aeruginosa strain PA27853; test: Killing curves with or without hog gastric mucin or CF sputum
[3] = Accelerated stability method, open chain formation; assay type: physicochemical
[4] = cited from earlier work
[5] = system: Pseudomonas aeruginosa; test: Susceptibility of tobramycin resistant isolates from Phase II tobramycin trials; conditions: isolates with a tobramycin MIC>16 μg/ml
[6] = Shelf life and stability of dry and liquid forms; assay type: physicochemical; conditions: dry form
[7] = system: Burkholderia cepacia; conditions: cited from earlier work
[8] = Beagle dog 28 day inhalation safety study; assay type: in vivo
[9] = system: S. aureus; test: MIC by broth microdilution, negative control organism; conditions: Staphylococcus aureus
[10] = Solubility; assay type: physicochemical
[11] = system: P. aeruginosa strain PA27853; test: MIC for strain PA27853 by standard methods; assay type: cell-based; conditions: Pseudomonas aeruginosa
[12] = intravenous, 2,000 mg (2 g), six hours after administration; cited from earlier work
[13] = Viscosity of aztreonam solutions; assay type: physicochemical

NC[C@H]1O[C@H](O[C@H]2[C@H](O)[C@@H](O[C@H]3O[C@H](CO)[C@@H](O)[C@H](N)[C@H]3O)[C@H](N)C[C@@H]2N)[C@H](N)C[C@@H]1O [tobramycin]
patients with resistant isolates (MIC>16 μg/mL) [1]: 21%
inhibition of antibiotic activity by hog gastric mucin ([2]; 10% mucin added): inhibit the activity

C[C@H]1[C@H](NC(=O)/C(=N\OC(C)(C)C(=O)O)c2csc(N)n2)C(=O)N1S(=O)(=O)O [alpha form]
open chain ([3]; after 90 days): 1.2%
open chain ([3]; initial): 0.06%
loss after one week of storage ([4]; 80° C.): 80%
loss after one week of storage ([4]; room temperature): approximately 1%

C[C@H]1[C@H](NC(=O)/C(=N\OC(C)(C)C(=O)O)c2csc(N)n2)C(=O)N1S(=O)(=O)O.NCCCC[C@H](N)C(=O)O [aztreonam lysinate]
isolates susceptible [5]: ~75%
shelf life [6]: at least 2 years
isolates sensitive to parenteral treatment [7]: 5%

C[C@H]1[C@H](NC(=O)/C(=N\OC(C)(C)C(=O)O)c2csc(N)n2)C(=O)N1S(=O)(=O)O [aztreonam, (Z)-2-[[[(2-amino-4-thiazolyl)[[(2S,3S)-2-methyl-4-oxo-1-sulfo-3-azetidinyl]carbamoyl]methylene]amino]oxy]-2-methylpropionic acid]
necropsy or histological findings [8]: no necropsy or histological findings
killing of P. aeruginosa ([2]; at or above the MIC): effective killing
growth of P. aeruginosa ([2]; quantities less than the MIC): Growth of P. aeruginosa occurred
MIC50 [9]: 1020 µg/mL (≈ 2350 µM)
maximum concentration that can be dissolved in 1 mL of the solution [10]: 90 mg/mL
MIC [11]: 4 µg/mL (≈ 9.19 µM)
level at 6 hours [12]: ~16000 ng/mL
Viscosity of aztreonam ([13]; 75 mg/mL): 1.48 ± 0.1 mPas
Viscosity of aztreonam ([13]; 90 mg/mL): 1.7 ± 0.03 mPas

C[C@H]1[C@H](NC(=O)/C(=N\OC(C)(C)C(=O)O)c2csc(N)n2)C(=O)N1S(=O)(=O)O [beta form]
open chain ([3]; at 30 days): over 2%
open chain ([3]; initial): 0.9%
solubility in water [10]: relatively insoluble
increase in impurity level by TLC method ([4]; 12 month storage, 5% to 75% relative humidity, −20° C. to 40° C.): < 2%

From patent publication US9345663B2 (priority 2000, dated 2016)
